The values below come from paper PMC6919601, “Identification of Plasmodium dipeptidyl aminopeptidase allosteric inhibitors by high throughput screening” (PLoS ONE, 2019).

About 230 (0.21%) of roughly 110,000 compounds showed an effect of 50% or more. This is one part of the list.
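Note: 30 min substrate incubation versus DMSO and 10 µM JCP410 controls.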

For this experiment, the target named is DPAP1 (Plasmodium falciparum, UniProt Q8IIJ9). In words: primary screen, percent inhibition; read by cleavage of a fluorogenic dipeptide substrate; higher = more effect of the substance. Also on record: species or system P. falciparum D10 trophozoite lysates; single well.
DPAP1, sequence (Q8IIJ9 whole entry, looked up): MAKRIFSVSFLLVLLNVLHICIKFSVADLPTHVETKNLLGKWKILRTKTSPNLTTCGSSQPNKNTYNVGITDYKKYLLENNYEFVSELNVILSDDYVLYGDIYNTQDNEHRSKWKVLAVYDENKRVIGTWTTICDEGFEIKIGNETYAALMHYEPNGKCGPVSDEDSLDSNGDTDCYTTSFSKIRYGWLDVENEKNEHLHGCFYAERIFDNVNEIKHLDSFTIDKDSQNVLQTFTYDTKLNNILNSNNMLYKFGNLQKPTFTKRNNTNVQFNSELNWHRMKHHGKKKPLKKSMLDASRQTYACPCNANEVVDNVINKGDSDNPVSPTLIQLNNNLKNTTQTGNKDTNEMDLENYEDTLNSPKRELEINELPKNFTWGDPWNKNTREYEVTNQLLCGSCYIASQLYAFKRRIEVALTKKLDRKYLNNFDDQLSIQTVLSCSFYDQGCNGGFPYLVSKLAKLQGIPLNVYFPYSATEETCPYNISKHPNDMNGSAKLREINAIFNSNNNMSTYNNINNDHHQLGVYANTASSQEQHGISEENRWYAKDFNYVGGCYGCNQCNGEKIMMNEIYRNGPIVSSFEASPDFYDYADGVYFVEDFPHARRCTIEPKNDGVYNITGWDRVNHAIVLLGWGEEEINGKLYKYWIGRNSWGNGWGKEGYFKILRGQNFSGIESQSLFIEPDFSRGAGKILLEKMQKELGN
As for `OC1(c2ccc(Br)cc2)CCN(C2CCSC2)CC1` (stereo not drawn), the “% Inhibition @ 10 uM” value is listed as -0.0908%.
Consider `CCN1C(C(=O)c2ccccc2)=C(OC(=O)c2ccc(OC)c(OC)c2)c2ccccc2S1(=O)=O`, for which the “% Inhibition @ 10 uM” value was determined as 3.54%.
Take `CSc1ccc(C2C(C#N)=C(N)Oc3[nH]nc(C(C)(C)C)c32)cc1` (stereo not drawn): the “% Inhibition @ 10 uM” value came out at 0.983%.
With `CCCCNC(=O)CN(c1ccc(F)cc1)S(=O)(=O)c1ccccc1`, the “% Inhibition @ 10 uM” value was -5.46%.
Consider `CC(=O)N1N=C(Cc2ccc(-c3ccccc3)cc2)OC12CCCC2`, for which the “% Inhibition @ 10 uM” value was determined as 4.18%.
Consider `COc1ccc(-c2cc(C(=O)Nc3ccc(S(N)(=O)=O)cc3)c3ccccc3n2)cc1OC`, for which the “% Inhibition @ 10 uM” value is -0.999%.
The same measure for `CN(C)c1ccc(/C=C/c2[nH]c(=O)[nH]c(=O)c2[N+](=O)[O-])cc1`: 2.6%.
As for `CCCc1cc(C(=O)NCCc2ccccc2)no1`, the “% Inhibition @ 10 uM” value is listed as -0.591%.
For the compound `Cc1ccc(S(=O)(=O)NCC2CCC(C(=O)N3CCCCCC3)CC2)cc1` (stereo not drawn), the “% Inhibition @ 10 uM” value stood at 6.95%.
In the case of `COc1ccc(C(C#N)Nc2ccccc2C)cc1` (stereo not drawn), the “% Inhibition @ 10 uM” value is 4.98%.
On to `COc1ccc(NC(=S)/N=C(/NCS(=O)(=O)c2ccc(C)cc2)c2ccc(OC)cc2)cc1`, for which the “% Inhibition @ 10 uM” value turned out to be 3.56%.
`Cc1oc2c(C)c3oc(=O)c(CC(=O)N4CCOCC4)c(C)c3cc2c1-c1ccccc1`: the “% Inhibition @ 10 uM” value is reported as 2.54%.
On to `CCC(C)NC(=O)c1cc(-c2ccccc2)[nH]n1` (stereo not drawn), for which the “% Inhibition @ 10 uM” value is on record as -1.26%.
As to `CCn1c2ccc(Br)cc2c2cc(NC(C)=O)ccc21`, the “% Inhibition @ 10 uM” value is listed as 2.84%.
Consider `COCC(C)NC(=O)c1cc(OC)cc(OC)c1` (stereo not drawn), for which the “% Inhibition @ 10 uM” value is on record as 0.163%.
Consider `Cc1ccc(OCCCn2cc(C#N)c3ccccc32)cc1`, for which the “% Inhibition @ 10 uM” value came out at 2.01%.
Consider `CCc1nc2ccccc2n1CCC(=O)O`, for which the “% Inhibition @ 10 uM” value was -1.74%.
The same measure for `CC(NC1CCN(Cc2ccccc2)CC1)c1ccc(F)cc1` (stereo not drawn): -3.15%; for `CCOc1ccc2nc(Sc3ccc(C=C4C(=O)NC(=O)NC4=O)o3)sc2c1`: -2.39%; for `COc1ccc(-n2cc(Cl)nc(N[C@@H](C)c3ccccc3)c2=O)cc1`: -5.63%.
As for `CCC(=O)/C=C1\Sc2ccccc2N1CC`, the figure is -8.22%; as for `CCc1ccc(/C=c2\sc3nc(-c4ccccc4OC)nn3c2=O)cc1`, -1.18%; as for `O=C(CSc1cccc2cccnc12)Nc1nc2c(ccc3ccccc32)s1`, 8.6%.
With `NC1=NC(=O)/C(=C/c2ccc(-c3ccccc3Cl)o2)S1`, the “% Inhibition @ 10 uM” value worked out at 1.96%.
The same measure for `COc1ccc(CN2CCN(Cc3ccco3)CC2)c(OC)c1OC`: -8.59%; for `CCC[C@@H](NC(=O)OCc1ccccc1)C(=O)NCC#N`: 0.079%.
As for `Cc1ccc2nc(N3CCOCC3)c3nnnn3c2c1`, the figure is 2.82%; as for `CCn1cc(NC(=O)NCc2ccc3c(c2)OCO3)c(=O)c2ccc(C)nc21`, 0.635%; as for `CCc1c(N2CCOCC2)nc2n(c1=O)CCS2`, -1.15%.
On to `Cn1c(=O)c2nc(CN3CCN(CCO)CC3)[nH]c2n(C)c1=O`, for which the “% Inhibition @ 10 uM” value stood at 0.627%.
Turning to `N#Cc1c(NC(=O)c2ccccc2)sc2c1CCCCC2`, the “% Inhibition @ 10 uM” value is given as -0.736%.
With `NC(=O)c1cccc(NC(=O)c2ccccc2C(=O)O)c1`, the “% Inhibition @ 10 uM” value is -5.07%.
On to `CC(C)(C)NS(=O)(=O)c1cn(CC(=O)N2CCCC2)cc1S(=O)(=O)NC(C)(C)C`, for which the “% Inhibition @ 10 uM” value is -5.48%.
`COC(=O)c1ccc(CSc2nc(O)c3cnn(-c4ccccc4)c3n2)o1`: the “% Inhibition @ 10 uM” value stood at 0.208%.
Regarding `COCCCNC(=O)c1cc2c(-c3ccc(Cl)cc3)nn(C)c2s1`, the “% Inhibition @ 10 uM” value was -4.96%.
Regarding `S=C1NCN(CCc2ccccc2)CN1CC1CCCO1` (stereo not drawn), the “% Inhibition @ 10 uM” value was -3.74%.
The same measure for `CC(=O)NC1CCCc2c1[nH]c1ccc(C)cc21` (stereo not drawn): 1.26%; for `O=c1/c(=C/c2ccco2)sc2n1CN(c1ccccc1)CN=2`: 0.727%; for `CC1=C(C(=O)Nc2ccccc2C)C(c2cccs2)NC(S)=N1` (stereo not drawn): 1.88%.
As for `COc1ccc(C(CC(=O)Nc2ccc(Cl)cc2)NC(=O)C(F)(F)F)cc1` (stereo not drawn), the “% Inhibition @ 10 uM” value is -0.216%.
For `Cc1c(C(=O)NCC2COc3ccccc3O2)oc2ccc(S(=O)(=O)N(C)C3CCCCC3)cc12` (stereo not drawn), the “% Inhibition @ 10 uM” value is reported as 9.56%.
The same measure for `CCOc1ccc(Nc2nc(N)nc(CN3CC(C)CC(C)C3)n2)cc1` (stereo not drawn): 0.408%.
Take `O=C(CSCc1cccc(Br)c1)Nc1cccc2ccccc12`: the “% Inhibition @ 10 uM” value is given as -1.91%.
Consider `FC(F)Oc1ccc(C2C=C(c3ccccc3OC(F)F)Nc3ncnn32)cc1` (stereo not drawn), for which the “% Inhibition @ 10 uM” value is listed as 9.16%.
The same measure for `O=c1/c(=C/c2ccccc2)sc2nc3ccc(Cl)cc3c(=O)n12`: 1.27%; for `C=CCn1c2ccccc2c2nnc(SCC(=O)Nc3nc(C)c(C(=O)OCC)s3)nc21`: 0.484%; for `COc1cc2c(cc1OC)C(C(=O)N(C)Cc1ccccc1)C(c1ccccc1F)N(C)C2=O` (stereo not drawn): 1.07%.
As for `O=c1oc(-c2ccccc2)nc2c1C1(CCCC1)Cc1ccccc1-2`, the “% Inhibition @ 10 uM” value was 3.42%.
As to `COc1ccc(NC(=O)C(C)c2cccc(C(=O)c3ccccc3)c2)cc1` (stereo not drawn), the “% Inhibition @ 10 uM” value is reported as 6.69%.
Take `COc1cc(CN2CCc3c([nH]c4ccccc34)C2)cc(OC)c1`: the “% Inhibition @ 10 uM” value is 1.38%.
As for `Cc1ccc2c(c1)-c1c(cnn1CC(=O)NCC1CCCO1)CO2` (stereo not drawn), the figure is -4.34%.
